Results from article PMC6804450 (Acta Pharmaceutica Sinica. B, 2019).

Molecular target: 7H9 scFv-Fc fusion
Experiment: ELISA

Chain of 7H9 scFv-Fc fusion (Q16552 24-155): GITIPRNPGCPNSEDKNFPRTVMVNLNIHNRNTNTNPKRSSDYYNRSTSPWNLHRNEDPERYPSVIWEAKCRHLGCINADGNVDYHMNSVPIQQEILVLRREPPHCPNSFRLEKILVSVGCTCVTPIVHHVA

B1: recombinant human IL-17A (ligand)
chain: not shown
B1: binds.
